# This is one part of the list.
# B1: PpFlo1 (Pichia pastoris) (protein)
# chain: MGSSHHHHHHSSGLVPRGSHMQESGDGDISDSAYACDIDATRYDGFNATIYEFQPGDGRLTRDPVFMSTGYLNRTQLHSITGVTDPGFSIYTPGVPTTTLYGIPNVNWENLLLELKGYFRAEVSGDYGLSLRNIDDSAILFFGKETAFQCCNENSISNEASTDYSLFTIFRQEGDETTNLDSFTYTQYLEAGKYYPVRTFFVNIERHAVFNFTMTLPDGTELTDFHNYIYQFGALDEEQCQA
# Experiments:
# Experiment in all cases: glycan array binding signal (z-score within array); higher = stronger binding
# Conditions in all cases: glycan notation: IUPAC condensed, linker removed
# [1] = biological target: GlcNAc(b1-3)Gal(b1-4)GlcNAc(b1-2)Man(a1-3)[GlcNAc(b1-3)Gal(b1-4)GlcNAc(b1-2)Man(a1-6)]Man(b1-4)GlcNAc(b1-4)[Fuc(a1-6)]GlcNAc
# Summary of the method: (§1)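 Columns mapping to the same glycan were averaged after glycan names were converted to IUPAC-condensed notation. The data come from 3228 arrays in the Consortium for Functional Glycomics database, limited to those with an available protein sequence. Binding is reported as a within-array Z-score averaged across arrays of one protein sequence and across linkers.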
# [2] = biological target: GlcNAc(b1-3)Gal(b1-4)GlcNAc(b1-2)[GlcNAc(b1-3)Gal(b1-4)GlcNAc(b1-6)]Man(a1-6)[GlcNAc(b1-3)Gal(b1-4)GlcNAc(b1-2)Man(a1-3)]Man(b1-4)GlcNAc(b1-4)GlcNAc
# Summary of the method: as §1
# [3] = biological target: GlcNAc(b1-3)Gal(b1-4)GlcNAc(b1-3)Gal(b1-4)GlcNAc
# Summary of the method: as §1
# [4] = biological target: GlcNAc(b1-3)Gal(b1-4)GlcNAc(b1-3)Gal(b1-4)GlcNAc(b1-2)Man(a1-3)[GlcNAc(b1-3)Gal(b1-4)GlcNAc(b1-3)Gal(b1-4)GlcNAc(b1-2)Man(a1-6)]Man(b1-4)GlcNAc(b1-4)GlcNAc
# Summary of the method: as §1
# [5] = biological target: GlcNAc(b1-3)Gal(b1-4)GlcNAc(b1-3)Gal(b1-4)GlcNAc(b1-2)Man(a1-3)[GlcNAc(b1-3)Gal(b1-4)GlcNAc(b1-3)Gal(b1-4)GlcNAc(b1-2)Man(a1-6)]Man(b1-4)GlcNAc(b1-4)[Fuc(a1-6)]GlcNAc
# Summary of the method: as §1
# [6] = biological target: GlcNAc(b1-3)Gal(b1-4)GlcNAc(b1-3)Gal(b1-4)GlcNAc(b1-2)[GlcNAc(b1-3)Gal(b1-4)GlcNAc(b1-3)Gal(b1-4)GlcNAc(b1-6)]Man(a1-6)[GlcNAc(b1-3)Gal(b1-4)GlcNAc(b1-3)Gal(b1-4)GlcNAc(b1-2)Man(a1-3)]Man(b1-4)GlcNAc(b1-4)[Fuc(a1-6)]GlcNAc
# Summary of the method: as §1
# [7] = biological target: GlcNAc(b1-3)Gal(b1-4)GlcNAc(b1-3)Gal(b1-4)GlcNAc(b1-3)Gal(b1-4)GlcNAc(b1-2)Man(a1-3)[GlcNAc(b1-3)Gal(b1-4)GlcNAc(b1-3)Gal(b1-4)GlcNAc(b1-3)Gal(b1-4)GlcNAc(b1-2)Man(a1-6)]Man(b1-4)GlcNAc(b1-4)GlcNAc
# Summary of the method: as §1
# [8] = biological target: GlcNAc(b1-3)Gal(b1-4)GlcNAc(b1-3)Gal(b1-4)GlcNAc(b1-3)Gal(b1-4)GlcNAc(b1-2)Man(a1-3)[GlcNAc(b1-3)Gal(b1-4)GlcNAc(b1-3)Gal(b1-4)GlcNAc(b1-3)Gal(b1-4)GlcNAc(b1-2)Man(a1-6)]Man(b1-4)GlcNAc(b1-4)[Fuc(a1-6)]GlcNAc
# Summary of the method: as §1
# [9] = biological target: GlcNAc(b1-3)Gal(b1-4)GlcNAc(b1-3)Gal(b1-4)GlcNAc(b1-3)Gal(b1-4)GlcNAc(b1-2)[GlcNAc(b1-3)Gal(b1-4)GlcNAc(b1-3)Gal(b1-4)GlcNAc(b1-3)Gal(b1-4)GlcNAc(b1-6)]Man(a1-6)[GlcNAc(b1-3)Gal(b1-4)GlcNAc(b1-3)Gal(b1-4)GlcNAc(b1-3)Gal(b1-4)GlcNAc(b1-2)Man(a1-3)]Man(b1-4)GlcNAc(b1-4)[Fuc(a1-6)]GlcNAc
# Summary of the method: as §1
# [10] = biological target: GlcNAc(b1-3)Gal(b1-4)GlcNAc(b1-3)Gal(b1-4)GlcNAc(b1-3)Gal(b1-4)GlcNAc(b1-3)Gal(b1-4)GlcNAc(b1-2)Man(a1-3)[GlcNAc(b1-3)Gal(b1-4)GlcNAc(b1-3)Gal(b1-4)GlcNAc(b1-3)Gal(b1-4)GlcNAc(b1-3)Gal(b1-4)GlcNAc(b1-2)Man(a1-6)]Man(b1-4)GlcNAc(b1-4)GlcNAc
# Summary of the method: as §1
# [11] = biological target: GlcNAc(b1-3)Gal(b1-4)GlcNAc(b1-3)Gal(b1-4)GlcNAc(b1-3)Gal(b1-4)GlcNAc(b1-3)Gal(b1-4)GlcNAc(b1-2)Man(a1-3)[GlcNAc(b1-3)Gal(b1-4)GlcNAc(b1-3)Gal(b1-4)GlcNAc(b1-3)Gal(b1-4)GlcNAc(b1-3)Gal(b1-4)GlcNAc(b1-2)Man(a1-6)]Man(b1-4)GlcNAc(b1-4)[Fuc(a1-6)]GlcNAc
# Summary of the method: as §1
# [12] = biological target: GlcNAc(b1-3)Gal(b1-4)GlcNAc(b1-3)Gal(b1-4)GlcNAc(b1-3)Gal(b1-4)GlcNAc(b1-3)Gal(b1-4)GlcNAc(b1-2)[GlcNAc(b1-3)Gal(b1-4)GlcNAc(b1-3)Gal(b1-4)GlcNAc(b1-3)Gal(b1-4)GlcNAc(b1-3)Gal(b1-4)GlcNAc(b1-6)]Man(a1-6)[GlcNAc(b1-3)Gal(b1-4)GlcNAc(b1-3)Gal(b1-4)GlcNAc(b1-3)Gal(b1-4)GlcNAc(b1-3)Gal(b1-4)GlcNAc(b1-2)Man(a1-3)]Man(b1-4)GlcNAc(b1-4)[Fuc(a1-6)]GlcNAc
# Summary of the method: as §1
# [13] = biological target: GlcNAc(b1-3)Gal(b1-4)GlcNAc(b1-3)Gal(b1-4)GlcNAc(b1-3)GalNAc
# Summary of the method: as §1
# [14] = biological target: GlcNAc(b1-3)Gal(b1-4)GlcNAc(b1-3)GalNAc
# Summary of the method: as §1
# [15] = biological target: GlcNAc(b1-3)Gal(b1-4)GlcNAc(b1-3)[GlcNAc(b1-3)Gal(b1-4)GlcNAc(b1-3)]GalNAc
# Summary of the method: as §1
# [16] = biological target: GlcNAc(b1-3)Gal(b1-4)GlcNAc(b1-6)[Gal(b1-3)]GalNAc
# Summary of the method: as §1
# [17] = biological target: GlcNAc(b1-3)Gal(b1-4)GlcNAc(b1-6)[GlcNAc(b1-3)Gal(b1-3)]GalNAc
# Summary of the method: as §1
# [18] = biological target: GlcNAc(b1-3)Gal(b1-4)GlcNAc(b1-6)[GlcNAc(b1-3)]Gal(b1-4)GlcNAc
# Summary of the method: as §1
# [19] = biological target: GlcNAc(b1-3)GalNAc
# Summary of the method: as §1
# [20] = biological target: GlcNAc(b1-3)Man
# Summary of the method: as §1
# [21] = biological target: GlcNAc(b1-3)[GlcNAc(b1-4)][GlcNAc(b1-6)]GlcNAc
# Summary of the method: as §1
# [22] = biological target: GlcNAc(b1-3)[GlcNAc(b1-6)]Gal(b1-4)GlcNAc
# Summary of the method: as §1
# [23] = biological target: GlcNAc(b1-3)[GlcNAc(b1-6)]GalNAc
# Summary of the method: as §1
binder,measurement,setting,value
B1,glycan array binding signal (z-score),[1],-0.131
same,glycan array binding signal (z-score),[2],-0.213
same,glycan array binding signal (z-score),[3],0.551
same,glycan array binding signal (z-score),[4],0.609
same,glycan array binding signal (z-score),[5],0.579
same,glycan array binding signal (z-score),[6],0.35
same,glycan array binding signal (z-score),[7],-0.321
same,glycan array binding signal (z-score),[8],0.586
same,glycan array binding signal (z-score),[9],0.172
same,glycan array binding signal (z-score),[10],-0.543
same,glycan array binding signal (z-score),[11],0.114
same,glycan array binding signal (z-score),[12],0.567
same,glycan array binding signal (z-score),[13],-0.514
same,glycan array binding signal (z-score),[14],-0.449
same,glycan array binding signal (z-score),[15],-0.39
same,glycan array binding signal (z-score),[16],-0.189
same,glycan array binding signal (z-score),[17],-0.294
same,glycan array binding signal (z-score),[18],-0.394
same,glycan array binding signal (z-score),[19],0.281
same,glycan array binding signal (z-score),[20],1.9
same,glycan array binding signal (z-score),[21],0.131
same,glycan array binding signal (z-score),[22],1.26
same,glycan array binding signal (z-score),[23],0.217

# Source: the supplement of paper PMC8728848
